# In the supplement of paper PMC8728848:
# This is one part of the list.
# Legend:
# Experiment in all cases: glycan array binding signal (z-score within array); higher = stronger binding
# Conditions in all cases: glycan notation: IUPAC condensed, linker removed
# [1] = target: Fuc(a1-3)[Gal3S(b1-4)]GlcNAc6S
# Procedure, shortened: (§1)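 Columns mapping to the same glycan were averaged after glycan names were converted to IUPAC-condensed notation. The data come from 3228 arrays in the Consortium for Functional Glycomics database, limited to those with an available protein sequence. Binding is reported as a within-array Z-score averaged across arrays of one protein sequence and across linkers.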
# [2] = target: Fuc(a1-3)[GalNAc(b1-4)]GlcNAc
# Procedure, shortened: as §1
# [3] = target: Fuc(a1-3)[GalNAc(b1-4)]GlcNAc6S
# Procedure, shortened: as §1
# Fuc(a1-4)GlcNAc = target: Fuc(a1-4)GlcNAc
# Procedure, shortened: as §1
# Fuc(b1-3)GlcNAc = target: Fuc(b1-3)GlcNAc
# Procedure, shortened: as §1
# Gal(a1-2)Gal = target: Gal(a1-2)Gal
# Procedure, shortened: as §1
# Gal(a1-3)Gal = target: Gal(a1-3)Gal
# Procedure, shortened: as §1
# Gal(a1-3)Gal(b1-3)GlcNAc = target: Gal(a1-3)Gal(b1-3)GlcNAc
# Procedure, shortened: as §1
# [4] = target: Gal(a1-3)Gal(b1-3)GlcNAc(b1-2)Man
# Procedure, shortened: as §1
# [5] = target: Gal(a1-3)Gal(b1-3)GlcNAc(b1-2)Man(a1-3)[Gal(a1-3)Gal(b1-3)GlcNAc(b1-2)Man(a1-6)]Man(b1-4)GlcNAc(b1-4)GlcNAc
# Procedure, shortened: as §1
# [6] = target: Gal(a1-3)Gal(b1-3)GlcNAc(b1-3)GalNAc
# Procedure, shortened: as §1
# [7] = target: Gal(a1-3)Gal(b1-3)GlcNAc(b1-6)GalNAc
# Procedure, shortened: as §1
# [8] = target: Gal(a1-3)Gal(b1-3)[Fuc(a1-4)]GlcNAc(b1-2)Man(a1-3)[Gal(a1-3)Gal(b1-3)[Fuc(a1-4)]GlcNAc(b1-2)Man(a1-6)]Man(b1-4)GlcNAc(b1-4)GlcNAc
# Procedure, shortened: as §1
# Gal(a1-3)Gal(b1-4)Glc = target: Gal(a1-3)Gal(b1-4)Glc
# Procedure, shortened: as §1
# Gal(a1-3)Gal(b1-4)GlcNAc = target: Gal(a1-3)Gal(b1-4)GlcNAc
# Procedure, shortened: as §1
# [9] = target: Gal(a1-3)Gal(b1-4)GlcNAc(b1-2)Man
# Procedure, shortened: as §1
# [10] = target: Gal(a1-3)Gal(b1-4)GlcNAc(b1-2)Man(a1-3)[Gal(a1-3)Gal(b1-4)GlcNAc(b1-2)Man(a1-6)]Man(b1-4)GlcNAc(b1-4)GlcNAc
# Procedure, shortened: as §1
# [11] = target: Gal(a1-3)Gal(b1-4)GlcNAc(b1-3)GalNAc
# Procedure, shortened: as §1
# [12] = target: Gal(a1-3)Gal(b1-4)GlcNAc(b1-6)GalNAc
# Procedure, shortened: as §1
# [13] = target: Gal(a1-3)Gal(b1-4)[Fuc(a1-3)]GlcNAc
# Procedure, shortened: as §1
# [14] = target: Gal(a1-3)Gal(b1-4)[Fuc(a1-3)]GlcNAc(b1-2)Man(a1-3)[Gal(a1-3)Gal(b1-4)[Fuc(a1-3)]GlcNAc(b1-2)Man(a1-6)]Man(b1-4)GlcNAc(b1-4)GlcNAc
# Procedure, shortened: as §1
# Gal(a1-3)GalNAc = target: Gal(a1-3)GalNAc
# Procedure, shortened: as §1
# [15] = target: Gal(a1-3)[Gal(a1-4)]Gal(b1-4)GlcNAc
# Procedure, shortened: as §1
# [16] = target: Gal(a1-4)Gal(b1-3)GlcNAc(b1-2)Man(a1-3)[Gal(a1-4)Gal(b1-3)GlcNAc(b1-2)Man(a1-6)]Man(b1-4)GlcNAc(b1-4)GlcNAc
# Procedure, shortened: as §1
# Gal(a1-4)Gal(b1-4)Glc = target: Gal(a1-4)Gal(b1-4)Glc
# Procedure, shortened: as §1
# Gal(a1-4)Gal(b1-4)GlcNAc = target: Gal(a1-4)Gal(b1-4)GlcNAc
# Procedure, shortened: as §1
# [17] = target: Gal(a1-4)Gal(b1-4)GlcNAc(b1-2)Man(a1-3)[Gal(a1-4)Gal(b1-4)GlcNAc(b1-2)Man(a1-6)]Man(b1-4)GlcNAc(b1-4)GlcNAc
# Procedure, shortened: as §1
# [18] = target: Gal(a1-4)Gal(b1-4)GlcNAc(b1-3)Gal(b1-4)Glc
# Procedure, shortened: as §1
# Gal(a1-4)GlcNAc = target: Gal(a1-4)GlcNAc
# Procedure, shortened: as §1
# Gal(a1-6)Glc = target: Gal(a1-6)Glc
# Procedure, shortened: as §1
# Gal(b1-2)Gal = target: Gal(b1-2)Gal
# Procedure, shortened: as §1
# Gal(b1-3)Gal = target: Gal(b1-3)Gal
# Procedure, shortened: as §1
# Gal(b1-3)Gal(b1-4)GlcNAc = target: Gal(b1-3)Gal(b1-4)GlcNAc
# Procedure, shortened: as §1
# Gal(b1-3)GalNAc = target: Gal(b1-3)GalNAc
# Procedure, shortened: as §1
# [19] = target: Gal(b1-3)GalNAc(a1-3)[Fuc(a1-2)]Gal(b1-4)Glc
# Procedure, shortened: as §1
# [20] = target: Gal(b1-3)GalNAc(a1-3)[Fuc(a1-2)]Gal(b1-4)GlcNAc
# Procedure, shortened: as §1
# Gal(b1-3)GalNAc(b1-3)Gal = target: Gal(b1-3)GalNAc(b1-3)Gal
# Procedure, shortened: as §1
# [21] = target: Gal(b1-3)GalNAc(b1-3)Gal(a1-4)Gal(b1-4)Glc
# Procedure, shortened: as §1
# [22] = target: Gal(b1-3)GalNAc(b1-4)Gal(b1-4)Glc
# Procedure, shortened: as §1
# [23] = target: Gal(b1-3)GalNAc(b1-4)[Neu5Ac(a2-3)]Gal(b1-4)Glc
# Procedure, shortened: as §1
# Gal(b1-3)GlcNAc = target: Gal(b1-3)GlcNAc
# Procedure, shortened: as §1
# [24] = target: Gal(b1-3)GlcNAc(a1-3)Gal(b1-4)GlcNAc
# Procedure, shortened: as §1
# [25] = target: Gal(b1-3)GlcNAc(a1-6)Gal(b1-4)GlcNAc
# Procedure, shortened: as §1
# Gal(b1-3)GlcNAc(b1-2)Man = target: Gal(b1-3)GlcNAc(b1-2)Man
# Procedure, shortened: as §1
# [26] = target: Gal(b1-3)GlcNAc(b1-2)Man(a1-3)[Gal(b1-3)GlcNAc(b1-2)Man(a1-6)]Man(b1-4)GlcNAc(b1-4)GlcNAc
# Procedure, shortened: as §1
binder,measurement,setting,value
PX14375F-bfa-539-21-539 (Bacteroides fragilis) (protein) EDFLQKDPPSSPSQSVFWQKKSDFESALAGTYSVMYSGVFSQIMPCLDGLTDNAIVQHSEGTYGWAKTIAQGDLTPNQGGFVTDIYGNCYKGIARVHILMEQLDQYTGSDISADEKKFMLAQCKALRGYFYSWLYQCYKEVPVVTQSLDLNTMYQPKATRAEVLNRVMTDYDEAISELPDKLYSDSQTSGRFTVSAVKALKARILLFDAYDSNGKAISSKMEEVLTLLQSIKGYSLAARVRDNFISEKQLASPEIMFSVRFLRPNLTHSMDLYYGAWAVLDPTRNMVDAFECTDGKPWGESPLTVRPDESILYGNDDALKKAERAKMFMNRDRRLYESVNHSMMANFVDDGFKDEEVQVNESNNKGPTGFSALKYVQPTDVTPGYSTVSDADIVVLRYAHVLLMIAEAENEAHGATTTALNAINEVRTRSGQPAIEAGISQDDLRERIRNEWRIETCFEGLRYFQLKRWKLMDKRVNGVEDPAYPGYIKVYKPAFEFFPIPQSEIDKAGGVLKQDPAYE,glycan array binding signal (z-score),[1],-0.373
same,glycan array binding signal (z-score),[2],0.462
same,glycan array binding signal (z-score),[3],-0.482
same,glycan array binding signal (z-score),Fuc(a1-4)GlcNAc,-0.217
same,glycan array binding signal (z-score),Fuc(b1-3)GlcNAc,-0.08
same,glycan array binding signal (z-score),Gal(a1-2)Gal,-0.206
same,glycan array binding signal (z-score),Gal(a1-3)Gal,-0.526
same,glycan array binding signal (z-score),Gal(a1-3)Gal(b1-3)GlcNAc,-0.042
same,glycan array binding signal (z-score),[4],-0.257
same,glycan array binding signal (z-score),[5],2.35
same,glycan array binding signal (z-score),[6],-0.277
same,glycan array binding signal (z-score),[7],-0.221
same,glycan array binding signal (z-score),[8],0.263
same,glycan array binding signal (z-score),Gal(a1-3)Gal(b1-4)Glc,0.077
same,glycan array binding signal (z-score),Gal(a1-3)Gal(b1-4)GlcNAc,-0.52
same,glycan array binding signal (z-score),[9],-0.187
same,glycan array binding signal (z-score),[10],0.78
same,glycan array binding signal (z-score),[11],-0.25
same,glycan array binding signal (z-score),[12],-0.184
same,glycan array binding signal (z-score),[13],-0.104
same,glycan array binding signal (z-score),[14],-0.52
same,glycan array binding signal (z-score),Gal(a1-3)GalNAc,-0.197
same,glycan array binding signal (z-score),[15],3.97
same,glycan array binding signal (z-score),[16],-0.572
same,glycan array binding signal (z-score),Gal(a1-4)Gal(b1-4)Glc,-0.195
same,glycan array binding signal (z-score),Gal(a1-4)Gal(b1-4)GlcNAc,0.607
same,glycan array binding signal (z-score),[17],0.334
same,glycan array binding signal (z-score),[18],0.15
same,glycan array binding signal (z-score),Gal(a1-4)GlcNAc,-0.504
same,glycan array binding signal (z-score),Gal(a1-6)Glc,-1.11
same,glycan array binding signal (z-score),Gal(b1-2)Gal,0.071
same,glycan array binding signal (z-score),Gal(b1-3)Gal,0.178
same,glycan array binding signal (z-score),Gal(b1-3)Gal(b1-4)GlcNAc,0.901
same,glycan array binding signal (z-score),Gal(b1-3)GalNAc,-0.151
same,glycan array binding signal (z-score),[19],-0.372
same,glycan array binding signal (z-score),[20],-0.104
same,glycan array binding signal (z-score),Gal(b1-3)GalNAc(b1-3)Gal,0.119
same,glycan array binding signal (z-score),[21],-0.705
same,glycan array binding signal (z-score),[22],-0.503
same,glycan array binding signal (z-score),[23],-0.415
same,glycan array binding signal (z-score),Gal(b1-3)GlcNAc,-0.235
same,glycan array binding signal (z-score),[24],-0.727
same,glycan array binding signal (z-score),[25],-0.417
same,glycan array binding signal (z-score),Gal(b1-3)GlcNAc(b1-2)Man,-0.06
same,glycan array binding signal (z-score),[26],0.106
